From publication PMC12040169 (PLOS Biology, 2025)
The other results are listed elsewhere or left out.

Test system: T1, C. trachomatis L2/434/Bu expressing GFP (CTL2-GFP)
T1 construct: L2/434/Bu GFP intracellular growth in HeLa cells
Design: species or system HeLa; C. trachomatis total inclusion area by high-content imaging, normalised to DMSO
Details: total inclusion area; 28.5 h, 10 µM; inhibitor
Method in brief: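 Imaging read-out: GFP inclusions and Hoechst nuclei captured by high-content imaging after fixation. Inclusion area/number = chlamydial growth; nuclei count = host cell viability. MIC calculated per earlier method.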

**Q.** For `O=C1CC2(CCN(C(=O)C3CCCCC3)CC2)Oc2ccc(F)cc21` [CBK282863], which “% of control remaining” value is on record?
**A.** The value was 78.1888.

**Q.** `OCCN(CCO)c1nc(-c2ccccc2)nc2sc(-c3ccccc3)cc12` [CBK265935] was tested. Which “% of control remaining” value did it give?
**A.** The value was 89.0694.

**Q.** With `O=C(O)C1CCCCC1C(=O)Nc1cccc2ccccc12` (stereo not shown) [CBK261569] as the compound, how does the “% of control remaining” value read?
**A.** Its value is 87.5856.

**Q.** Which “% of control remaining” value does the source give for `COCCNC(=O)CSc1cc(Cl)nc(Cl)c1` [CBK020796] here?
**A.** Its value is 68.6337.

**Q.** How did the “% of control remaining” value turn out when `Cc1cc(C)cc(OCC(=O)Nc2c(C#N)c(C)nn2C)c1` [CBK304791] was run?
**A.** Its value is 59.983.

**Q.** For `CCn1c(=O)n(CCC(=O)NC(C(N)=O)c2ccccc2)c2ccccc21` (stereo not shown) [CBK295196], which “% of control remaining” value is on record?
**A.** The value was 94.6087.

**Q.** With `Nc1ccc(Oc2nc(Oc3ccc(N)cc3)c(F)c(Oc3ccc(N)cc3)c2F)cc1` [CBK266397C] as the compound, how does the “% of control remaining” value read?
**A.** The value was 138.201.

**Q.** `CCn1ncc2c1CCCC2NC1CCN(c2ccccc2F)C1=O` (stereo not shown) [CBK305279] was tested. Which “% of control remaining” value did it give?
**A.** The value was 73.4467.

**Q.** Which “% of control remaining” value does the source give for `COc1ccccc1NC(=O)N1C[C@@H]2C[C@H](C1)c1ccc(-c3cncnc3)c(=O)n1C2` [CBK289186] here?
**A.** The value was 103.977.

**Q.** For `CN1CCN(Cc2nc3c(c(=O)n(C)c(=O)n3C)n2Cc2ccc(Br)cc2)CC1` [CBK269310], which “% of control remaining” value is on record?
**A.** Its value is 111.545.

**Q.** `COC(CNC(=O)Cn1nnnc1CN1CCC(C)CC1)c1cccs1` (stereo not shown) [CBK306958] was tested. Which “% of control remaining” value did it give?
**A.** Its value is 93.4512.

**Q.** Which “% of control remaining” value does the source give for `Cc1cc(CN(C)Cc2cn(C)c3cc(F)ccc23)n[nH]1` [CBK281710] here?
**A.** The value was 98.5483.

**Q.** `CCN(CC)C(=O)c1ccccc1NS(=O)(=O)Cc1ccccc1[N+](=O)[O-]` [CBK045428] was tested. Which “% of control remaining” value did it give?
**A.** Its value is 101.673.

**Q.** With `C[C@@H](Cn1nc2c(cc1=O)CCCC2)NC(=O)Cc1ccc(F)cc1` [CBK284526] as the compound, how does the “% of control remaining” value read?
**A.** Its value is 112.647.

**Q.** `CCCCn1nnnc1NCc1cccc(OC)c1OC` [CBK288091] was tested. Which “% of control remaining” value did it give?
**A.** The value was 88.4615.

**Q.** `COc1ccccc1-c1noc(CCCC(=O)Nc2cccc(C(F)(F)F)c2)n1` [CBK268794] was tested. Which “% of control remaining” value did it give?
**A.** The value was 130.997.

**Q.** With `CSc1cccc(NC(=S)N2CCC(N(C)C(C)C)CC2)c1` [CBK294463] as the compound, how does the “% of control remaining” value read?
**A.** The value was 83.1314.

**Q.** For `O=S(=O)(c1cccs1)N1CCCN(Cc2nccs2)CC1` [CBK045172], which “% of control remaining” value is on record?
**A.** The value was 103.889.

**Q.** For `CN(C)c1ccc(Nc2nc(NCCO)c3ccccc3n2)cc1` [CBK268392C], which “% of control remaining” value is on record?
**A.** The value was 2.277.

**Q.** For `CS(=O)(=O)c1cccc(-c2nnc(NC(=O)c3ccccc3)o2)c1` [CBK287726], which “% of control remaining” value is on record?
**A.** The value was 57.5523.

**Q.** `Cc1cccc(CCNC(=O)c2cccn(CC(=O)N(C)C3CCCCC3)c2=O)c1` [CBK286113] was tested. Which “% of control remaining” value did it give?
**A.** The value was 101.699.

**Q.** With `O=S(=O)(NCc1cccc(F)c1)c1ccc(OC(F)(F)F)cc1` [CBK043379] as the compound, how does the “% of control remaining” value read?
**A.** Its value is 79.8205.
